The supplement of paper PMC4604168 (melanoma cell lines)
The other results are listed elsewhere or left out. Most values come without repeats; read them as rough.

System: WM3619
Assay: cell count relative to DMSO control; melanoma cells; higher = more viable cells
Details: library dose: low library concentration; 72 h; first compound 0.4 µM
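Note: cell number obtained by counting DAPI-stained nuclei in high-throughput microscope images with image analysis software, screen run in 1,536-well plates.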

**Q.** Which cell count does the source give for `C[C@@H](N)c1ccc(C(=O)Nc2ccnc3[nH]ccc23)cc1` + C[C@]1(c2nc3c(C(N)=O)cccc3[nH]2)CCCN1 [Veliparib] (partner dose 1.4 µM) here?
**A.** The cell count was 91.1%.

**Q.** With `CCCCCCCCCCCCCCCCCCOP(=O)([O-])OC1CC[N+](C)(C)CC1` [Perifosine] + CCCCCCCCc1ccc(CCC(N)(CO)CO)cc1 [fingolimod] (partner dose 2 µM) as the compound, how does the cell count read?
**A.** Its cell count is 101%.

**Q.** For `C[C@@H](N)c1ccc(C(=O)Nc2ccnc3[nH]ccc23)cc1` + CN(c1ncccc1CNc1nc(Nc2ccc3c(c2)CC(=O)N3)ncc1C(F)(F)F)S(C)(=O)=O [PF562271] (partner dose 0.08 µM), which cell count is on record?
**A.** Its cell count is 96.5%.

**Q.** `C[C@@H](N)c1ccc(C(=O)Nc2ccnc3[nH]ccc23)cc1` + COc1cc(Nc2ncc(F)c(Nc3ccc4c(n3)NC(=O)C(C)(C)O4)n2)cc(OC)c1OC [Tamatinib] (partner dose 0.4 µM) was tested. Which cell count did it give?
**A.** The cell count was 174%.

**Q.** With `C[C@@H](N)c1ccc(C(=O)Nc2ccnc3[nH]ccc23)cc1` + Cc1ccc(NC(=O)c2cccc(N(C)C)c2)cc1NC(=O)c1ccc(O)cc1 [ZM336372] (partner dose 2 µM) as the compound, how does the cell count read?
**A.** Its cell count is 103%.

**Q.** How did the cell count turn out when `CCCCCCCCCCCCCCCCCCOP(=O)([O-])OC1CC[N+](C)(C)CC1` [Perifosine] + Cc1cn(-c2cc(NC(=O)c3ccc(C)c(Nc4nccc(-c5cccnc5)n4)c3)cc(C(F)(F)F)c2)cn1 [nilotinib] (partner dose 0.2 µM) was run?
**A.** Its cell count is 97.2%.

**Q.** For `C[C@@H](N)c1ccc(C(=O)Nc2ccnc3[nH]ccc23)cc1` + Cn1c(=O)n(-c2ccc(C(C)(C)C#N)cc2)c2c3cc(-c4cnc5ccccc5c4)ccc3ncc21 [NVP-BEZ235] (partner dose 0.004 µM), which cell count is on record?
**A.** Its cell count is 73.3%.

**Q.** `Cn1sc(=O)n(Cc2ccccc2)c1=O` + CCCCCCCCc1ccc(CCC(N)(CO)CO)cc1 [fingolimod] (partner dose 2 µM) was tested. Which cell count did it give?
**A.** Its cell count is 91.6%.

System: WM451Lu
Assay: as above
Details: library dose: low library concentration; 72 h; first compound 0.4 µM

**Q.** How did the cell count turn out when `Cn1sc(=O)n(Cc2ccccc2)c1=O` + Cc1cc(N2CCOCC2)cc2[nH]c(-c3c(NC[C@@H](O)c4cccc(Cl)c4)cc[nH]c3=O)nc12 [BMS536924] (partner dose 0.2 µM) was run?
**A.** Its cell count is 99.5%.

**Q.** How did the cell count turn out when `CCCCCCCCCCCCCCCCCCOP(=O)([O-])OC1CC[N+](C)(C)CC1` [Perifosine] + C[C@@H]1CCN(C(=O)CC#N)C[C@@H]1N(C)c1ncnc2[nH]ccc12 [CP690550] (partner dose 1 µM) was run?
**A.** Its cell count is 64%.

**Q.** `CCCCCCCCCCCCCCCCCCOP(=O)([O-])OC1CC[N+](C)(C)CC1` [Perifosine] + OCCn1cc(-c2cnc3nnn(Cc4ccc5ncccc5c4)c3n2)cn1 [PF04217903] (partner dose 1 µM) was tested. Which cell count did it give?
**A.** The cell count was 69.5%.

**Q.** Which cell count does the source give for `CCCCCCCCCCCCCCCCCCOP(=O)([O-])OC1CC[N+](C)(C)CC1` [Perifosine] + O=C(O)c1ccc2c(c1)nc(Nc1cccc(Cl)c1)c1ccncc12 [CX4945] (partner dose 0.4 µM) here?
**A.** Its cell count is 99.7%.

**Q.** `Cn1sc(=O)n(Cc2ccccc2)c1=O` + O=C(CCCCCCC(=O)Nc1ccccc1)NO [vorinostat] (partner dose 0.08 µM) was tested. Which cell count did it give?
**A.** Its cell count is 102%.

**Q.** For `C[C@@H](N)c1ccc(C(=O)Nc2ccnc3[nH]ccc23)cc1` + CC(C)C[C@H](NC(=O)[C@H](Cc1ccccc1)NC(=O)c1cnccn1)B(O)O [Bortezomib] (partner dose 0.001 µM), which cell count is on record?
**A.** The cell count was 96.2%.

**Q.** `CCCCCCCCCCCCCCCCCCOP(=O)([O-])OC1CC[N+](C)(C)CC1` [Perifosine] + O=c1[nH]nc(Sc2ncc([N+](=O)[O-])s2)n1-c1ccc2c(c1)OCCO2 [BI78D3] (partner dose 0.2 µM) was tested. Which cell count did it give?
**A.** Its cell count is 94.2%.

**Q.** `C[C@@H](N)c1ccc(C(=O)Nc2ccnc3[nH]ccc23)cc1` + Cc1cc([N+](=O)[O-])ccc1NS(=O)(=O)c1cc(Cl)ccc1Cl [FH535] (partner dose 1 µM) was tested. Which cell count did it give?
**A.** Its cell count is 98.3%.

**Q.** With `C[C@@H](N)c1ccc(C(=O)Nc2ccnc3[nH]ccc23)cc1` + c1cc(-c2cnn3cc(-c4ccc(OCCN5CCCCC5)cc4)cnc23)ccn1 [Dorsomorphin] (partner dose 0.4 µM) as the compound, how does the cell count read?
**A.** The cell count was 91.2%.

**Q.** `CCCCCCCCCCCCCCCCCCOP(=O)([O-])OC1CC[N+](C)(C)CC1` [Perifosine] + O=C(/C=C/c1cccnc1)NCCCCC1CCN(C(=O)c2ccccc2)CC1 [FK866] (partner dose 0.01 µM) was tested. Which cell count did it give?
**A.** Its cell count is 80.2%.

**Q.** `Cn1sc(=O)n(Cc2ccccc2)c1=O` + CN(NC(=O)CC(=O)NN(C)C(=S)c1ccccc1)C(=S)c1ccccc1 [STA4783] (partner dose 0.006 µM) was tested. Which cell count did it give?
**A.** Its cell count is 80.8%.

**Q.** With `CCCCCCCCCCCCCCCCCCOP(=O)([O-])OC1CC[N+](C)(C)CC1` [Perifosine] + COc1cc2c(Oc3ccc4[nH]c(C)cc4c3F)ncnc2cc1OCCCN1CCCC1 [cediranib] (partner dose 0.4 µM) as the compound, how does the cell count read?
**A.** Its cell count is 106%.

**Q.** `C[C@@H](N)c1ccc(C(=O)Nc2ccnc3[nH]ccc23)cc1` + O=C(Nc1ccccc1)c1cc([N+](=O)[O-])ccc1Cl [GW9662] (partner dose 2 µM) was tested. Which cell count did it give?
**A.** Its cell count is 99.7%.

**Q.** How did the cell count turn out when `CCCCCCCCCCCCCCCCCCOP(=O)([O-])OC1CC[N+](C)(C)CC1` [Perifosine] + COc1ccc(Cl)c(Nc2nc3ccccc3nc2NS(=O)(=O)c2cccc(NC(=O)C(C)(C)N)c2)c1 [XL147] (partner dose 0.8 µM) was run?
**A.** Its cell count is 102%.

**Q.** Which cell count does the source give for `CCCCCCCCCCCCCCCCCCOP(=O)([O-])OC1CC[N+](C)(C)CC1` [Perifosine] + COC(=O)c1sccc1S(=O)(=O)Nc1ccc(Nc2ccccc2)cc1OC [GSK0660] (partner dose 1 µM) here?
**A.** Its cell count is 105%.

**Q.** For `Cn1sc(=O)n(Cc2ccccc2)c1=O` + NC(=O)Nc1cc(-c2cccc(F)c2)sc1C(=O)N[C@H]1CCCNC1 [AZD7762] (partner dose 0.02 µM), which cell count is on record?
**A.** Its cell count is 91.7%.

**Q.** `C[C@@H](N)c1ccc(C(=O)Nc2ccnc3[nH]ccc23)cc1` + CS(=O)(=O)CCNCc1ccc(-c2ccc3ncnc(Nc4ccc(OCc5cccc(F)c5)c(Cl)c4)c3c2)o1 [lapatinib] (partner dose 0.8 µM) was tested. Which cell count did it give?
**A.** The cell count was 89.1%.

**Q.** Which cell count does the source give for `Cn1sc(=O)n(Cc2ccccc2)c1=O` + C[C@]1(c2nc3c(C(N)=O)cccc3[nH]2)CCCN1 [Veliparib] (partner dose 1.4 µM) here?
**A.** Its cell count is 111%.

**Q.** With `C[C@@H](N)c1ccc(C(=O)Nc2ccnc3[nH]ccc23)cc1` + COc1ccc(Cl)c(Nc2nc3ccccc3nc2NS(=O)(=O)c2cccc(NC(=O)C(C)(C)N)c2)c1 [XL147] (partner dose 0.8 µM) as the compound, how does the cell count read?
**A.** The cell count was 83.2%.

**Q.** For `C[C@@H](N)c1ccc(C(=O)Nc2ccnc3[nH]ccc23)cc1` + Nc1nc(F)nc2c1ncn2[C@@H]1O[C@H](CO)[C@@H](O)[C@@H]1O [fludarabine] (partner dose 0.2 µM), which cell count is on record?
**A.** Its cell count is 60.1%.

**Q.** `C[C@@H](N)c1ccc(C(=O)Nc2ccnc3[nH]ccc23)cc1` + Clc1ccc(Nc2nnc(Cc3ccncc3)c3ccccc23)cc1 [vatalanib] (partner dose 2 µM) was tested. Which cell count did it give?
**A.** The cell count was 59.3%.

**Q.** With `C[C@@H](N)c1ccc(C(=O)Nc2ccnc3[nH]ccc23)cc1` + O=C(O)C(=O)Nc1sc2c(c1C(=O)O)CCNC2 [TCS401] (partner dose 1.66667 µM) as the compound, how does the cell count read?
**A.** Its cell count is 111%.

**Q.** For `Cn1sc(=O)n(Cc2ccccc2)c1=O` + CO[C@H]1C[C@@H]2CC[C@@H](C)[C@@](O)(O2)C(=O)C(=O)N2CCCC[C@H]2C(=O)O[C@H]([C@H](C)C[C@@H]2CC[C@@H](OCCO)[C@H](OC)C2)CC(=O)[C@H](C)/C=C(\C)[C@@H](O)[C@@H](OC)C(=O)[C@H](C)C[C@H](C)/C=C/C=C/C=C/1C [everolimus] (partner dose 0.02 µM), which cell count is on record?
**A.** Its cell count is 91.6%.

**Q.** How did the cell count turn out when `CCCCCCCCCCCCCCCCCCOP(=O)([O-])OC1CC[N+](C)(C)CC1` [Perifosine] + Cc1cc(N2CCOCC2)cc2[nH]c(-c3c(NC[C@@H](O)c4cccc(Cl)c4)cc[nH]c3=O)nc12 [BMS536924] (partner dose 0.2 µM) was run?
**A.** The cell count was 114%.

**Q.** How did the cell count turn out when `C[C@@H](N)c1ccc(C(=O)Nc2ccnc3[nH]ccc23)cc1` + CC(=O)O[C@@]12CO[C@@H]1C[C@H](O)[C@@]1(C)C(=O)[C@H](O)C3=C(C)[C@@H](OC(=O)[C@H](O)[C@@H](NC(=O)OC(C)(C)C)c4ccccc4)C[C@@](O)([C@@H](OC(=O)c4ccccc4)[C@H]21)C3(C)C [Docetaxel] (partner dose 0.0001 µM) was run?
**A.** Its cell count is 62.2%.

**Q.** `Cn1sc(=O)n(Cc2ccccc2)c1=O` + c1cc(-c2cnn3cc(-c4ccc(OCCN5CCCCC5)cc4)cnc23)ccn1 [Dorsomorphin] (partner dose 0.4 µM) was tested. Which cell count did it give?
**A.** Its cell count is 87.8%.

**Q.** For `Cn1sc(=O)n(Cc2ccccc2)c1=O` + COCC[n+]1c2c(n(Cc3cnccn3)c1C)C(=O)c1ccccc1C2=O [YM155] (partner dose 0.0004 µM), which cell count is on record?
**A.** The cell count was 81.4%.

**Q.** `Cn1sc(=O)n(Cc2ccccc2)c1=O` + Nc1nc(F)nc2c1ncn2[C@@H]1O[C@H](CO)[C@@H](O)[C@@H]1O [fludarabine] (partner dose 0.2 µM) was tested. Which cell count did it give?
**A.** The cell count was 45.7%.

**Q.** For `CCCCCCCCCCCCCCCCCCOP(=O)([O-])OC1CC[N+](C)(C)CC1` [Perifosine] + CC(=O)O[C@@]12CO[C@@H]1C[C@H](O)[C@@]1(C)C(=O)[C@H](O)C3=C(C)[C@@H](OC(=O)[C@H](O)[C@@H](NC(=O)OC(C)(C)C)c4ccccc4)C[C@@](O)([C@@H](OC(=O)c4ccccc4)[C@H]21)C3(C)C [Docetaxel] (partner dose 0.0001 µM), which cell count is on record?
**A.** The cell count was 80.3%.

**Q.** How did the cell count turn out when `CCCCCCCCCCCCCCCCCCOP(=O)([O-])OC1CC[N+](C)(C)CC1` [Perifosine] + C=C(c1ccc(C(=O)O)cc1)c1cc2c(cc1C)C(C)(C)CCC2(C)C [Bexarotene] (partner dose 2 µM) was run?
**A.** Its cell count is 82.3%.
